Whole data set: some 33,000 sequences, median “E-score (dimensionless, -0.5 to 0.5)” near -0.058, cut for the highest 2% near 0.35. Some of the results follow.
These sequences were tested on MvaT (assay: PBM 8-mer E-score (mean of HK and ME arrays) (E-score (dimensionless, -0.5 to 0.5)); higher = stronger relative binding preference; most listed sequences are background and not binding sites).
Protocol: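 Protein binding microarray: GST-tagged full-length MvaT (P. aeruginosa PAO1) bound to two universal double-stranded 60-mer arrays (ME and HK), each with a constant 25-mer primer and a variable 35-mer region covering all 8-mers. The 8-mer E-score (rank-based, range -0.5 to 0.5, >0.45 = specific binding) is the mean of the two arrays.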
For CAAGACAC, the “PBM 8-mer E-score” value was -0.233. CGTACTCA was tested, and the “PBM 8-mer E-score” value was -0.0376. For CGCGACGC, the “PBM 8-mer E-score” value was -0.188. In the case of TCAAGCGA, the “PBM 8-mer E-score” value is reported as -0.194. In the case of CGAAACTA, the “PBM 8-mer E-score” value is reported as 0.197. In the case of GGTCATGA, the “PBM 8-mer E-score” value is reported as 0.0267. With CAGGTGAC the “PBM 8-mer E-score” value was -0.0331. CGGTCCTC was tested, and the “PBM 8-mer E-score” value was -0.336. For CTCATAAA, the “PBM 8-mer E-score” value was 0.0815. For ATACCTGA, the “PBM 8-mer E-score” value was -0.0883. In the case of CCTAGACA, the “PBM 8-mer E-score” value is reported as -0.212. For CGATTTGC, the “PBM 8-mer E-score” value was -0.00476. With ATCTAGAG the “PBM 8-mer E-score” value was -0.0603. With ATCTATGA the “PBM 8-mer E-score” value was 0.0316. With AGGCCCCG the “PBM 8-mer E-score” value was -0.362. For AGTGCAAT, the “PBM 8-mer E-score” value was 0.109. In the case of CCTCGCGC, the “PBM 8-mer E-score” value is reported as -0.229. ACCTCATA was tested, and the “PBM 8-mer E-score” value was 0.0878. In the case of AGAGCTCA, the “PBM 8-mer E-score” value is reported as -0.176. With CTCGTGTA the “PBM 8-mer E-score” value was -0.0442. For GCGATCGC, the “PBM 8-mer E-score” value was -0.0216. With GGAGGTAA the “PBM 8-mer E-score” value was -0.0793. With ATGTGTAG the “PBM 8-mer E-score” value was 0.124. In the case of ACTTGTCA, the “PBM 8-mer E-score” value is reported as 0.0131. In the case of CGGAGGAC, the “PBM 8-mer E-score” value is reported as -0.434. In the case of AACGGGTA, the “PBM 8-mer E-score” value is reported as -0.0158. For AAAAGTAG, the “PBM 8-mer E-score” value was 0.0505. For CACCGACA, the “PBM 8-mer E-score” value was -0.184. In the case of AGAGTGAG, the “PBM 8-mer E-score” value is reported as -0.037. In the case of AGCAAGAC, the “PBM 8-mer E-score” value is reported as -0.13. AAACACAA was tested, and the “PBM 8-mer E-score” value was 0.245. With ACACGCCG the “PBM 8-mer E-score” value was -0.0975. With GTGCCCGA the “PBM 8-mer E-score” value was -0.123. AAGTACTG was tested, and the “PBM 8-mer E-score” value was 0.0993. AGACGCGA was tested, and the “PBM 8-mer E-score” value was 0.0502. CTTGCGTA was tested, and the “PBM 8-mer E-score” value was -0.0596. ACATCCCG was tested, and the “PBM 8-mer E-score” value was 0.0723. In the case of ATATGTTA, the “PBM 8-mer E-score” value is reported as 0.423. In the case of TACCCTGA, the “PBM 8-mer E-score” value is reported as -0.207. In the case of CTGACGAC, the “PBM 8-mer E-score” value is reported as -0.211. In the case of CTTGCAAG, the “PBM 8-mer E-score” value is reported as 0.114. For ATAGCGTA, the “PBM 8-mer E-score” value was 0.129. In the case of AATGAGGA, the “PBM 8-mer E-score” value is reported as -0.0863. For ACAGCATC, the “PBM 8-mer E-score” value was -0.122. In the case of ATTAATTG, the “PBM 8-mer E-score” value is reported as 0.391. In the case of ACGTTCCC, the “PBM 8-mer E-score” value is reported as -0.225. For CCAATAGC, the “PBM 8-mer E-score” value was 0.0224. With CTGGACAG the “PBM 8-mer E-score” value was -0.288. In the case of CACACCTC, the “PBM 8-mer E-score” value is reported as 0.0325. In the case of AAACGATA, the “PBM 8-mer E-score” value is reported as 0.14. ATTTTAGG was tested, and the “PBM 8-mer E-score” value was -0.00392. For ATGGGAAG, the “PBM 8-mer E-score” value was -0.172. For AACTTGTG, the “PBM 8-mer E-score” value was 0.102. With AGAATCTA the “PBM 8-mer E-score” value was 0.0548. CGTCCAAA was tested, and the “PBM 8-mer E-score” value was -0.0948. For ATCCTAAG, the “PBM 8-mer E-score” value was -0.0828. For GTTTCCTA, the “PBM 8-mer E-score” value was -0.0222. For ACAGCAAC, the “PBM 8-mer E-score” value was 0.11. In the case of CGTATCAC, the “PBM 8-mer E-score” value is reported as -0.0677. In the case of CATTGTAC, the “PBM 8-mer E-score” value is reported as 0.151. AAAACGGA was tested, and the “PBM 8-mer E-score” value was -0.0527. In the case of GATACAAA, the “PBM 8-mer E-score” value is reported as 0.247. In the case of AAAGACGT, the “PBM 8-mer E-score” value is reported as 0.0386. With CATGGTAG the “PBM 8-mer E-score” value was -0.105. CAGCGGGG was tested, and the “PBM 8-mer E-score” value was -0.275. In the case of AAGCGTGG, the “PBM 8-mer E-score” value is reported as -0.223. In the case of GACACGGA, the “PBM 8-mer E-score” value is reported as -0.171. CCAATACG was tested, and the “PBM 8-mer E-score” value was 0.141. For AAGAAATT, the “PBM 8-mer E-score” value was 0.26. For GACCTACA, the “PBM 8-mer E-score” value was -0.0129. For AGAACGCT, the “PBM 8-mer E-score” value was -0.0355. For CTGCAATA, the “PBM 8-mer E-score” value was 0.101. GAGATACA was tested, and the “PBM 8-mer E-score” value was -0.0187. In the case of AGGATCAG, the “PBM 8-mer E-score” value is reported as -0.108. In the case of TTCCAGAA, the “PBM 8-mer E-score” value is reported as 0.055. CTTACCCA was tested, and the “PBM 8-mer E-score” value was -0.114. With GGATTACC the “PBM 8-mer E-score” value was -0.152. For TGTGACAA, the “PBM 8-mer E-score” value was 0.0246. For GATAGGAA, the “PBM 8-mer E-score” value was -0.0142. For ACTTCAGC, the “PBM 8-mer E-score” value was -0.0718. In the case of CCCATACG, the “PBM 8-mer E-score” value is reported as -0.215. For CAATATTG, the “PBM 8-mer E-score” value was 0.377. In the case of AGATTCAA, the “PBM 8-mer E-score” value is reported as 0.0584. With AATTGTCA the “PBM 8-mer E-score” value was 0.155. For CGGGGCCC, the “PBM 8-mer E-score” value was -0.333. With TAGACAGA the “PBM 8-mer E-score” value was -0.025. ACCGATTG was tested, and the “PBM 8-mer E-score” value was -0.103. In the case of AACATGCT, the “PBM 8-mer E-score” value is reported as 0.048. For GTAACGAA, the “PBM 8-mer E-score” value was 0.0156. In the case of CAGCCAGA, the “PBM 8-mer E-score” value is reported as -0.205. With GAAAGCTC the “PBM 8-mer E-score” value was -0.277. In the case of AAAAGAGT, the “PBM 8-mer E-score” value is reported as 0.207. For AGAGAGGC, the “PBM 8-mer E-score” value was -0.343. For CGTATGCA, the “PBM 8-mer E-score” value was -0.0333.

From the supplement of paper PMC4466236
